Results taken from PubChem BioAssay AID504333 (National Center for Advancing Translational Sciences (NCATS), 2011).
Screen size: about 360,000 compounds; about 16,000 (4.4%) were called active. The shares of active, inactive and inconclusive entries below differ from those in the screen. Calls follow the shape of the dose curve; as a rule, active = well fitted inhibition curve with a large enough effect; inconclusive = small, poorly fitted or top-dose-only effect; inactive = no such curve, though single readings can be large or run the other way. Potencies beside an inconclusive call are fits to weak or partial responses and may not hold up.

Molecular target: Bromodomain adjacent to zinc finger domain protein 2B (Homo sapiens) (UniProt Q9UIF8)
Test: qHTS Assay for Inhibitors of BAZ2B; also: nearly all actives have a fitted effect of over 60% in size
Settings: AlphaScreen BAZ2B-H3K14Ac peptide displacement; activity change, negative = inhibition: at 114 µM (top of the series)
Procedure, shortened: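 AlphaScreen displacement: compounds (up to 110uM) incubated 30 min at room temperature with a preformed 50 nM BAZ2B/50 nM biotinylated H3K14Ac peptide complex in PBS pH 7.4 with Tween-20. Donor and acceptor beads at 10 ug/mL final added, 20 min light-protected before reading.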
% is scaled to controls: 0 for no effect and ±100 for the full control effect; potency is read from the fitted curve at half-maximal effect; tags tell the direction and shape of the fitted curve.

Chain of UniProt Q9UIF8 (Q9UIF8 whole entry, looked up, the tested form may be a part): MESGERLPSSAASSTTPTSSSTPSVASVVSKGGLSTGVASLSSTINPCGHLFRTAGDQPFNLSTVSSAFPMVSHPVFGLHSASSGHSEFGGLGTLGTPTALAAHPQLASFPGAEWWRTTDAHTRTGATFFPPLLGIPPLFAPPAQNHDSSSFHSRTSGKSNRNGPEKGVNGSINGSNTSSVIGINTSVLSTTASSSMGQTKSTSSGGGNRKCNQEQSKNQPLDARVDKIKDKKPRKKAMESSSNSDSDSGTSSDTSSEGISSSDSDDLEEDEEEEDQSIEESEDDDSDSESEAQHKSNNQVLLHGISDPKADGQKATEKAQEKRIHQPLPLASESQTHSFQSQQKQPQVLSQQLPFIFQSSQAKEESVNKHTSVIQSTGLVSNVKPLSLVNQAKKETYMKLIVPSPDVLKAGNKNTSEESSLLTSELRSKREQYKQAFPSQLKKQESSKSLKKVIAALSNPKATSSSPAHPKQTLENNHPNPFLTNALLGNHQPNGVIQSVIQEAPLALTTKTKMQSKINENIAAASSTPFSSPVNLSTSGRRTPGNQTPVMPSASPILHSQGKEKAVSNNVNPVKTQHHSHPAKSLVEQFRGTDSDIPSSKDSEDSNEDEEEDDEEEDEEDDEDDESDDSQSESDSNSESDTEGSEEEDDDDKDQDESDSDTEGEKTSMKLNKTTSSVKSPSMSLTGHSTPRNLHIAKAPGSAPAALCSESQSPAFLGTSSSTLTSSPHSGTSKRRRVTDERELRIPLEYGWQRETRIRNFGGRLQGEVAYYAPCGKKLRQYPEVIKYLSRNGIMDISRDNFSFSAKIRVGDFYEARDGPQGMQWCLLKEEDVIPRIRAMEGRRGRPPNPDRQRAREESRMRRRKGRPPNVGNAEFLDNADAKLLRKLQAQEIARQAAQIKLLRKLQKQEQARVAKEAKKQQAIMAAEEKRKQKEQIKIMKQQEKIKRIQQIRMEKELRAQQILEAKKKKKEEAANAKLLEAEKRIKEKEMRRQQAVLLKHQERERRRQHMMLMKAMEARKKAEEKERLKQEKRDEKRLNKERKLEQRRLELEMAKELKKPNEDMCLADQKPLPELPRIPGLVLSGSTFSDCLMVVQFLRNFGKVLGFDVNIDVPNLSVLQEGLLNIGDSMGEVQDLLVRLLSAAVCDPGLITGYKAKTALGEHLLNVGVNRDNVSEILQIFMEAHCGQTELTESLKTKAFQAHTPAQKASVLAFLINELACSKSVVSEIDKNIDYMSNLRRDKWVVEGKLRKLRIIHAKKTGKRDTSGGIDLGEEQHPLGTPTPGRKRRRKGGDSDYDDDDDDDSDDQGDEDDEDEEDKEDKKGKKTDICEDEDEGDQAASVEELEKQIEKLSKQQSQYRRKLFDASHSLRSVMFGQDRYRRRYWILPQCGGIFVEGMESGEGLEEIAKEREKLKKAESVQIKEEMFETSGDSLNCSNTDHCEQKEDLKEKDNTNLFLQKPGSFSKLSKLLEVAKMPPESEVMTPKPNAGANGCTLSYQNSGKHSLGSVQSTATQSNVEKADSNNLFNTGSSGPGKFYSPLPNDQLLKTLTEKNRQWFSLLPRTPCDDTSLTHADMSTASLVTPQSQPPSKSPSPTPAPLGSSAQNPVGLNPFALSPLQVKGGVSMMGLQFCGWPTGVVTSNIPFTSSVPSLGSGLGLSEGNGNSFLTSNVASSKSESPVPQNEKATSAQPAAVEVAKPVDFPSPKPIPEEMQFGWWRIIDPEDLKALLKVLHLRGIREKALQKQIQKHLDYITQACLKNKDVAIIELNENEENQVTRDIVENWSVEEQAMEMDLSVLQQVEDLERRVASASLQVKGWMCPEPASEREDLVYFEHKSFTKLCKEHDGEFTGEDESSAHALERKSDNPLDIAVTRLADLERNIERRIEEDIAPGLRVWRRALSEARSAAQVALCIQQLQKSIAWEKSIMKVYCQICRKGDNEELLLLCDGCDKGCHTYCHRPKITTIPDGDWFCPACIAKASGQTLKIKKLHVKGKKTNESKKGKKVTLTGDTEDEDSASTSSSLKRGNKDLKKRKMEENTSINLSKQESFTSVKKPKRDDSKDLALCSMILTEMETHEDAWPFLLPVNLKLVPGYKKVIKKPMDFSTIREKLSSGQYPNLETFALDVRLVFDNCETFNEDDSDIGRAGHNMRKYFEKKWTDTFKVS

**Q.** For `N/C(=N\OC(=O)c1cccs1)c1cccc([N+](=O)[O-])c1`, which Potency is on record?
**A.** inconclusive: 56.2 µM [inhibitor, partial curve]

**Q.** Which Potency does the source give for `N/C(=N\OC(=O)c1cc([N+](=O)[O-])ccc1Cl)c1ccccn1` here?
**A.** inconclusive: 89.1 µM [inhibitor, single point]

**Q.** For `O=[N+]([O-])c1ccc(N2CCN(CC(O)COc3ccccc3)CC2)cc1` (stereo not drawn), which “activity change, negative = inhibition” value is on record?
**A.** inactive: -36.5%

**Q.** `CCOC(=O)c1c(C)n(-c2ccccc2)c2ccc(OC(=O)c3cccc(Cl)c3)cc12` was tested. Which “activity change, negative = inhibition” value did it give?
**A.** inactive: 2.66%

**Q.** How did the Potency turn out when `CCOc1ccc(NC2=C(OC)C(=O)c3ccccc3C2=O)cc1` was run?
**A.** active: 10 µM

**Q.** How did the “activity change, negative = inhibition” value turn out when `Cc1ccc(OCC(=O)O/N=C(\N)Cc2ccc(Cl)cc2)cc1` was run?
**A.** inactive: 160%

**Q.** `COc1cccc(C(=O)OCC(=O)Nc2sc3c(c2C(N)=O)CCC3)c1O` was tested. Which Potency did it give?
**A.** active: 50.1 µM

**Q.** Which Potency does the source give for `Cc1cccc(CCNS(=O)(=O)c2ccc3c(c2)n(C)c(=O)c(=O)n3C)c1` here?
**A.** inconclusive: 89.1 µM [inhibitor, single point]

**Q.** With `COc1cc(OC)cc(OC(=O)C2CCN(C(=O)c3ccc(Cl)cc3)CC2)c1` as the compound, how does the “activity change, negative = inhibition” value read?
**A.** inactive: -5.89%

**Q.** `O=C(O)Cc1sc(N/N=C\c2ccccc2)nc1-c1ccccc1` was tested. Which Potency did it give?
**A.** inconclusive: 79.4 µM [inhibitor, single point]

**Q.** `Cc1cc(C)n(CC(=O)N/N=C/c2cc([N+](=O)[O-])ccc2O)n1` was tested. Which Potency did it give?
**A.** active: 39.8 µM

**Q.** For `CCOC(=O)c1ccc(NC(=S)NCCc2ccc(OC)c(OC)c2)cc1`, which Potency is on record?
**A.** inconclusive: 79.4 µM [inhibitor, single point]

**Q.** Which Potency does the source give for `CCCC(C(=O)Nc1ccc(C)c(S(=O)(=O)N2CCOCC2)c1)c1ccccc1` (stereo not drawn) here?
**A.** inconclusive: 100 µM [inhibitor, single point]

**Q.** For `O=C(CSc1nc2ccccc2c(=O)[nH]1)N1CCN(c2ccccc2)CC1`, which Potency is on record?
**A.** inconclusive: 112 µM [inhibitor, partial curve]

**Q.** Which Potency does the source give for `COc1cc(OC)cc(-c2nnc(SCC(=O)Nc3ccc(C(=O)O)cc3)s2)c1` here?
**A.** inconclusive: 79.4 µM [inhibitor, partial curve]

**Q.** `Cc1c(C(=O)N2CCCCCC2)c(S(=O)(=O)Nc2cccc(F)c2)c(C)n1C` was tested. Which “activity change, negative = inhibition” value did it give?
**A.** inactive: -23.7%

**Q.** `Oc1ccc(NCc2cccs2)cc1` was tested. Which Potency did it give?
**A.** inconclusive: 89.1 µM [inhibitor, single point]

**Q.** How did the Potency turn out when `S=C(Nc1ccccc1)Nn1cnnc1` was run?
**A.** inconclusive: 56.2 µM [inhibitor, partial curve]

**Q.** `CCOc1ccc2nc(N3CCC(C(=O)Nc4cc(C)ccc4C)CC3)sc2c1` was tested. Which “activity change, negative = inhibition” value did it give?
**A.** inactive: 3.43%

**Q.** How did the “activity change, negative = inhibition” value turn out when `COc1ccc(C2=C(C(C)=O)Sc3nnc(-c4ccc(C)cc4)n3N2C(C)=O)cc1OC` was run?
**A.** inactive: -14.6%

**Q.** With `O=C1c2c(O)cc(O)cc2O[C@H](c2ccc(O)c(O)c2)[C@@H]1O` as the compound, how does the Potency read?
**A.** inconclusive: 79.4 µM [inhibitor, single point]

**Q.** For `c1ccc(COc2ccc(-c3csnn3)cc2)cc1`, which Potency is on record?
**A.** inconclusive: 89.1 µM [inhibitor, single point]

**Q.** With `CCN(CC)CCN(C(=O)c1ccc2ccccc2c1)c1nc2ccc(OC)cc2s1` as the compound, how does the Potency read?
**A.** inconclusive: 22.4 µM [inhibitor, single point]

**Q.** `CN=c1scc(C)n1/N=C/c1ccc(O)cc1` was tested. Which Potency did it give?
**A.** inconclusive: 79.4 µM [inhibitor, single point]

**Q.** With `CC(=O)NC(c1ccccc1)c1cc([N+](=O)[O-])c2cccnc2c1O` (stereo not drawn) as the compound, how does the Potency read?
**A.** active: 3.55 µM

**Q.** With `O=C(N/C=C/c1ccco1)NCc1ccccc1` as the compound, how does the Potency read?
**A.** active: 44.7 µM

**Q.** Which Potency does the source give for `C(=C\c1ccccc1)/CN1CCN(Cc2ccc3c(c2)OCO3)CC1` here?
**A.** active: 50.1 µM

**Q.** `CC(Oc1cc(F)ccc1[N+](=O)[O-])C(=O)N(C)CC(=O)Nc1ccccc1C(F)(F)F` (stereo not drawn) was tested. Which “activity change, negative = inhibition” value did it give?
**A.** inactive: -1.8%

**Q.** With `CS(=O)(=O)N(CC(=O)NCc1ccco1)c1ccc2c(c1)OCO2` as the compound, how does the Potency read?
**A.** inconclusive: 89.1 µM [inhibitor, single point]

**Q.** `CC(=O)Nc1nonc1-c1nc2ccccc2n1N(C(C)=O)C(C)=O` was tested. Which Potency did it give?
**A.** inconclusive: 89.1 µM [inhibitor, single point]

**Q.** With `CCN(CC)c1ccc(/C=N/OCC(=O)N2CCCc3ccccc32)cc1` as the compound, how does the Potency read?
**A.** inconclusive: 44.7 µM [inhibitor, partial curve]

**Q.** `O=C(NC12CC3CC(CC(C3)C1)C2)c1ccc(-c2cccc(Cl)c2)o1` was tested. Which Potency did it give?
**A.** inconclusive: 70.8 µM [inhibitor, single point]

**Q.** Which Potency does the source give for `Cc1cccc(-c2cccc(NC(=O)C3CCCN(C(=O)c4cccnc4)C3)c2)c1` (stereo not drawn) here?
**A.** inconclusive: 79.4 µM [inhibitor, single point]

**Q.** With `COc1ccc(CNC(=O)c2cc(=O)c3ccc(C)c(C)c3o2)cc1` as the compound, how does the Potency read?
**A.** inconclusive: 89.1 µM [inhibitor, single point]

**Q.** Which Potency does the source give for `COc1cc(-c2nc3ccccn3c2Nc2ccccc2C)ccc1O` here?
**A.** inconclusive: 44.7 µM [inhibitor, partial curve]

**Q.** Which Potency does the source give for `CCOC(=O)c1c(CCl)nc2ccccc2c1C` here?
**A.** inconclusive: 89.1 µM [inhibitor, single point]

**Q.** Which Potency does the source give for `COc1ccc(Nc2cc(C(=O)NCCCN(C)Cc3ccccc3)c3ccccc3n2)c(OC)c1` here?
**A.** inconclusive: 39.8 µM [inhibitor, partial curve]

**Q.** For `COc1cc2c(cc1OC)C(c1ccc(SC)cc1)CC(=O)N2` (stereo not drawn), which Potency is on record?
**A.** inconclusive: 89.1 µM [inhibitor, single point]

**Q.** For `CCOC(=O)c1c(Nc2cccc(C(=O)OC)c2)nnc(-c2ccccc2)c1-c1ccccc1`, which Potency is on record?
**A.** inconclusive: 22.4 µM [inhibitor, full curve]

**Q.** How did the “activity change, negative = inhibition” value turn out when `CCOC(=O)c1sc(SC)nc1N` was run?
**A.** inactive: -12.4%

**Q.** How did the Potency turn out when `OCc1ccccc1OCCCN1CCC(Cc2ccccc2)CC1` was run?
**A.** inconclusive: 39.8 µM [inhibitor, partial curve]

**Q.** For `CN1CCc2c(sc3c2C(=O)NC(c2ccccn2)N3)C1` (stereo not drawn), which Potency is on record?
**A.** active: 44.7 µM

**Q.** For `CCN(C(=O)CN1CCOCC1)C1(C)C(=O)c2ccccc2C1=O`, which “activity change, negative = inhibition” value is on record?
**A.** inactive: -31.7%

**Q.** Which Potency does the source give for `Cc1ccc(C(=O)C(C(=O)/C=C/c2ccccc2)=C2SCCCS2)cc1` here?
**A.** inconclusive: 31.6 µM [inhibitor, full curve]

**Q.** `CN1CCCN(C(c2ccccc2)c2ccc(Cl)cc2)CC1` (stereo not drawn) was tested. Which Potency did it give?
**A.** inconclusive: 56.2 µM [inhibitor, partial curve]

**Q.** For `CC1(C)Cc2[nH]c(=S)c(C#N)cc2CO1`, which Potency is on record?
**A.** active: 25.1 µM

**Q.** How did the Potency turn out when `O=C(c1ccccc1-c1ncc[nH]1)N1CCCC(Nc2ccc(F)cc2)C1` (stereo not drawn) was run?
**A.** inconclusive: 79.4 µM [inhibitor, single point]

**Q.** With `O=C1CN(C(=O)/C=C/c2ccc(Cl)cc2)c2ccccc2N1` as the compound, how does the Potency read?
**A.** inconclusive: 70.8 µM [inhibitor, single point]

**Q.** For `CCOC(=O)c1ccc(NC(=O)CC2C(=O)N(c3ccccc3)C(=O)N2Cc2ccc(C)cc2)cc1` (stereo not drawn), which “activity change, negative = inhibition” value is on record?
**A.** inactive: -12.2%

**Q.** Which Potency does the source give for `CCCCCC(=O)Nc1nc(C)c(-c2csc(Nc3cc(OC)ccc3OC)n2)s1` here?
**A.** active: 28.2 µM

**Q.** How did the “activity change, negative = inhibition” value turn out when `CC(=O)Nc1ccc(S(=O)(=O)NCc2ccc3c(c2)CCN3C(C)=O)cc1` was run?
**A.** inactive: 3.47%

**Q.** Which Potency does the source give for `Cc1ccc(C)c(N2CCN(C(=O)c3ccc(N4CCOCC4)c([N+](=O)[O-])c3)CC2)c1` here?
**A.** inconclusive: 44.7 µM [inhibitor, partial curve]

**Q.** How did the “activity change, negative = inhibition” value turn out when `Cc1oc(-c2ccccc2)nc1Cn1c(SCc2cccc(C(F)(F)F)c2)nc2cccnc21` was run?
**A.** inactive: -3.84%

**Q.** For `CCOc1cc(C(=O)N(Cc2nc(-c3ccc(C)cc3)no2)C(C)C)cc(OCC)c1OCC`, which “activity change, negative = inhibition” value is on record?
**A.** inactive: 0.431%

**Q.** How did the Potency turn out when `CCOc1ccc(NC(=O)COC(=O)c2cc([N+](=O)[O-])ccc2N2CCOCC2)cc1` was run?
**A.** inconclusive: 50.1 µM [inhibitor, partial curve]

**Q.** For `O=C(NCc1ccccc1)C1CCCN(c2cnccn2)C1` (stereo not drawn), which Potency is on record?
**A.** inconclusive: 89.1 µM [inhibitor, single point]

**Q.** Which “activity change, negative = inhibition” value does the source give for `CC(=O)c1cccc(NC(=O)Nc2nc(C)cc(C)n2)c1` here?
**A.** inactive: -8.77%

**Q.** `Cn1c(Cc2ccccc2)nnc1SCC(=O)Nc1ccccc1` was tested. Which “activity change, negative = inhibition” value did it give?
**A.** inactive: -15.2%

**Q.** Which Potency does the source give for `COc1ccc(NC(=S)N/N=C2\CC(C)(C)Oc3ccc(OC)cc32)cc1` here?
**A.** inconclusive: 79.4 µM [inhibitor, single point]

**Q.** How did the Potency turn out when `COc1ccc(NC(=O)CC(C)NCCCN2CCCC2=O)cc1` (stereo not drawn) was run?
**A.** inconclusive: 70.8 µM [inhibitor, single point]

**Q.** `CC(C)c1ccc(NC2CCCN(C(=O)CSc3nncn3C)C2)cc1` (stereo not drawn) was tested. Which “activity change, negative = inhibition” value did it give?
**A.** inactive: -17.8%

**Q.** How did the Potency turn out when `CC1=Nn2c(nc(-c3ccccc3)c2-c2ccccc2)NC(=O)C1Br` (stereo not drawn) was run?
**A.** inconclusive: 50.1 µM [inhibitor, partial curve, poor fit]

**Q.** With `O=C(c1ccco1)N(Cc1ccc([N+](=O)[O-])cc1)c1ccc(Br)cc1` as the compound, how does the Potency read?
**A.** inconclusive: 35.5 µM [inhibitor, partial curve]

**Q.** `OCCOc1ccc(C2=NCCO2)cc1` was tested. Which “activity change, negative = inhibition” value did it give?
**A.** inactive: 8.52%

**Q.** Which “activity change, negative = inhibition” value does the source give for `Cc1cc2c(c(=O)n1Cc1cccnc1)C(c1ccccc1)C(C#N)=C(N)O2` (stereo not drawn) here?
**A.** inactive: 9.72%

**Q.** `N#Cc1ccc(OC(=O)c2cc(-c3ccc(Cl)cc3)on2)cc1` was tested. Which “activity change, negative = inhibition” value did it give?
**A.** inactive: -20%

**Q.** Which Potency does the source give for `Nc1ccc(N)c(C(=O)O)c1` here?
**A.** active: 3.98 µM

**Q.** For `CCc1ccc(NC(=O)CSc2nc3n[nH]c(C)c3c(=N)n2-c2ccc(C)cc2)cc1`, which Potency is on record?
**A.** inconclusive: 89.1 µM [inhibitor, single point]

**Q.** For `CCOC(=O)c1sc2nc(CC(=O)OC)nc(NCc3ccco3)c2c1C`, which Potency is on record?
**A.** inconclusive: 89.1 µM [inhibitor, single point]

**Q.** With `COc1ccc(Nc2c3c(nc4ccccc24)CCCC3)cc1OC` as the compound, how does the Potency read?
**A.** inconclusive: 35.5 µM [inhibitor, partial curve]

**Q.** Which Potency does the source give for `Cc1ccc(NCC(=O)N/N=C/c2c[nH]c3ccccc23)cc1` here?
**A.** inconclusive: 39.8 µM [inhibitor, partial curve]

**Q.** `COC(=O)[C@@]1(Cc2ccc(OC)cc2)[C@H]2c3cc(C(=O)N4CCCC4)n(Cc4ccc(C)o4)c3C[C@H]2CN1C(=O)c1ccccc1` was tested. Which Potency did it give?
**A.** active: 39.8 µM

**Q.** How did the Potency turn out when `COc1ccc2c(c1)C1C=CCC1C(c1cc3c(cc1Br)OCO3)N2` (stereo not drawn) was run?
**A.** active: 35.5 µM
